{
  "source": "PubChem BioAssay AID504332",
  "about": "(National Center for Advancing Translational Sciences (NCATS), 2011)",
  "note": "The campaign covered roughly 350,000 compounds. About 31,000 (8.9%) were called active. Inconclusive means that the source gave no clear call. Such entries were picked first, then a sample of the others. Calls follow the shape of the dose curve; as a rule, active = well fitted inhibition curve with a large enough effect; inconclusive = small, poorly fitted or top-dose-only effect; inactive = no such curve, though single readings can be large or run the other way. A potency beside an inconclusive call is a rough fit, not a confirmed value. % is scaled to controls: 0 for no effect and ±100 for the full control effect; potency is read from the fitted curve at half-maximal effect; tags tell the direction and shape of the fitted curve.",
  "data": [
    {"biological_target": "Histone-lysine N-methyltransferase EHMT2 (Homo sapiens) (UniProt Q96KQ7)", "sequence (Q96KQ7 whole entry, looked up)": "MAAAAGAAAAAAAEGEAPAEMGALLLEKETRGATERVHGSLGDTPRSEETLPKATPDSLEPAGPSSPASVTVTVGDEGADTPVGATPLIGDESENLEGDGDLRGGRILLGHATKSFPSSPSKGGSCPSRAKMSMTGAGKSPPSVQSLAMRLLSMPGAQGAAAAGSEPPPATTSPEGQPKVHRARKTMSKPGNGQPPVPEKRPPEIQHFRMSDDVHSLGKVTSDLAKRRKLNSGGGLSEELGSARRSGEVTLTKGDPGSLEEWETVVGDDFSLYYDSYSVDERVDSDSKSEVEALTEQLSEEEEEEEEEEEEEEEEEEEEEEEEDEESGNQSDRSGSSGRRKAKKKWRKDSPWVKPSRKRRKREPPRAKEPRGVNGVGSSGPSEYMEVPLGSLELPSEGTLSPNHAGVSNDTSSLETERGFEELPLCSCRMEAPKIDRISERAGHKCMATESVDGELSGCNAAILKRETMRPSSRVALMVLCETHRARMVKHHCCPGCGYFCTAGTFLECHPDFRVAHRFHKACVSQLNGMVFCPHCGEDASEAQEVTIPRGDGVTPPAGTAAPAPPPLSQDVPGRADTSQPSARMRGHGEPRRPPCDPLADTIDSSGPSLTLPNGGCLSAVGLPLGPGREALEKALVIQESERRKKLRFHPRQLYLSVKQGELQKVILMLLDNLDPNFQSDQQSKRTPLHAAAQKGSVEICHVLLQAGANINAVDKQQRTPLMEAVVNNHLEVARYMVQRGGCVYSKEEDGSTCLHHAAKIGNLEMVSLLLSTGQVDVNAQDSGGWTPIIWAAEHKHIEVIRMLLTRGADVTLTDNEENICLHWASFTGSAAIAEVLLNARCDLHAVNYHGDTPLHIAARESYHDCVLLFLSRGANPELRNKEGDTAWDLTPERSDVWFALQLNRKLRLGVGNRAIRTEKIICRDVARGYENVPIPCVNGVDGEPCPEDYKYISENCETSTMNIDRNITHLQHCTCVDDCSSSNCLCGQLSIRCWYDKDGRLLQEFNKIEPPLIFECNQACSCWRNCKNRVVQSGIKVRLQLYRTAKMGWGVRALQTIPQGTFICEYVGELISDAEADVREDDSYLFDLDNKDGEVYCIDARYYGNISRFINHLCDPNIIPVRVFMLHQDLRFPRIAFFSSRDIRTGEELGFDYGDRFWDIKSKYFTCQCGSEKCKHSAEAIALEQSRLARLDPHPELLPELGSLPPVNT", "experiment": "qHTS Assay for Inhibitors of Histone Lysine Methyltransferase G9a; also: nearly all actives have a fitted effect of over 75% in size", "conditions": "G9a H3K9 monomethylation, AlphaScreen, 2 h; activity, negative = inhibition: at 59 µM (top of the series) unless noted", "summary_of_the_method": "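G9a (20 nM) was preincubated 15 min with compound, then reacted 2 h at room temperature with 500 nM biotin-H3K9 peptide and 20 µM SAM. Monomethyl-H3K9 detected by AlphaScreen using anti-H3K9me1 antibody.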", "values": [
      {"compound": "Cc1ccc(S(=O)(=O)CCc2nc3ccccc3s2)cc1", "Potency": "inconclusive: 25.1 µM [inhibitor, single point]"},
      {"compound": "O=C(C(=O)N1CCN(c2cccc(Cl)c2)CC1)c1c[nH]c2ccccc12", "Potency": "inconclusive: 2 µM [inhibitor, full curve, poor fit]"},
      {"compound": "COc1ccc2c(c1)C(c1ccc3c(c1)OCO3)CC(=O)O2", "note": "(configuration not stated)", "Potency": "inconclusive: 31.6 µM [inhibitor, partial curve, poor fit]"},
      {"compound": "COc1ccc(-n2nnnc2CNC(=O)c2ccc(S(=O)(=O)N3CCOCC3)cc2)cc1", "activity, negative = inhibition": "inactive: -7.49% [at 0.501 µM]"},
      {"compound": "CCCSC1=C(C#N)C(c2ccccc2C)CC(=O)N1", "note": "(configuration not stated)", "Potency": "active: 25.1 µM"},
      {"compound": "O=C(Nc1ccc(Cl)c(S(=O)(=O)N2CCOCC2)c1)c1ccc(OCC2CCCO2)cc1", "note": "(configuration not stated)", "Potency": "inconclusive: 39.8 µM [inhibitor, partial curve, poor fit]"},
      {"compound": "CCOc1ccc(N(Cc2cc3cc(C)ccc3[nH]c2=O)C(=O)c2cccc(Cl)c2)cc1", "activity, negative = inhibition": "inactive: -4.17%"},
      {"compound": "CC(C)(C)c1ccc(OCC(O)CSc2ncn[nH]2)cc1", "note": "(configuration not stated)", "Potency": "active: 8.91 µM"},
      {"compound": "CC1=C(C(=O)Nc2ccccc2)C(c2ccco2)C(C#N)=C(SCc2ccccc2)N1", "note": "(configuration not stated)", "Potency": "inconclusive: 2.82 µM [inhibitor, partial curve, poor fit]"},
      {"compound": "COc1ccc(-c2ncc3ccccn23)cc1OC", "Potency": "active: 14.1 µM"},
      {"compound": "O=C(CN1C(=O)NC2(CCCCC2)C1=O)N1CCN(S(=O)(=O)c2ccccc2)CC1", "activity, negative = inhibition": "inactive: 7.95% [at 102 µM]"},
      {"compound": "COc1ccccc1NC(=O)Nc1nc(CC(=O)Nc2ccc(N(C)C)cc2)cs1", "Potency": "active: 11.2 µM"},
      {"compound": "NC/C=C/C(=O)O", "Potency": "inactive"},
      {"compound": "CCOc1ccc(N=Nc2c(C)noc2C)cc1", "Potency": "inconclusive: 89.1 µM [inhibitor, single point]"},
      {"compound": "CCOC(=O)/C=C/C(=O)Nc1ccc(S(=O)(=O)N(C)c2ccccc2)cc1", "Potency": "active: 44.7 µM"},
      {"compound": "CCOC(=O)c1c(NC(=O)c2nn(CC)cc2Br)sc2c1CCCCC2", "activity, negative = inhibition": "inconclusive: -89.5% [inhibitor]"},
      {"compound": "O=C(c1ccc(=O)oc1)N1CCCc2ccccc21", "activity, negative = inhibition": "inconclusive: -138% [inhibitor]"},
      {"compound": "CCn1c2ccccc2c2nnc(N3CCN(c4cccc(C)c4C)CC3)nc21", "activity, negative = inhibition": "inactive: -14.2%"},
      {"compound": "c1nnc(NC2=NCCC2)s1", "Potency": "inconclusive: 89.1 µM [inhibitor, partial curve, poor fit]"},
      {"compound": "CCOc1ccccc1CNC(=O)CN1C(=O)CCCc2ccccc21", "activity, negative = inhibition": "inactive: 5.93%"},
      {"compound": "COc1ccc(S(=O)(=O)N2CCC(C(=O)N3CCCCCC3)CC2)cc1", "Potency": "inconclusive: 1.12 µM [inhibitor, single point]"},
      {"compound": "CCOC(=S)N/C(=N\\S(C)(=O)=O)c1ccccc1", "Potency": "active: 15.8 µM"},
      {"compound": "O=C(Cn1nc(N2CCN(c3ccccc3)CC2)ccc1=O)NCc1cccc(Cl)c1", "Potency": "inconclusive: 1.78 µM [inhibitor, full curve]"},
      {"compound": "Cc1cccc(OCCCCn2nnc3sc4c(c3c2=O)CCC(C)C4)c1", "note": "(configuration not stated)", "Potency": "inconclusive: 25.1 µM [inhibitor, single point]"},
      {"compound": "CS(=O)(=O)Nc1ccc(C2=NN(C(=O)CCCC(=O)O)C(c3cccs3)C2)cc1", "note": "(configuration not stated)", "activity, negative = inhibition": "inactive: 81.5% [at 102 µM]"},
      {"compound": "CNC(=O)CSc1nc2nc(C)cc(C)n2n1", "activity, negative = inhibition": "inactive: 19% [at 102 µM]"},
      {"compound": "Cc1ccnc2c(N3C(=O)C4C5C=CC(C5)C4(C)C3=O)cccc12", "note": "(configuration not stated)", "Potency": "inconclusive: 0.708 µM [inhibitor, partial curve, poor fit]"},
      {"compound": "O=C(NCc1nnc(SC/C=C/c2ccccc2)o1)c1ccco1", "Potency": "inconclusive: 39.8 µM [inhibitor, single point]"},
      {"compound": "Cc1ccc(Nc2nnc(SC(C)C(=O)NC3CC3)s2)cc1", "note": "(configuration not stated)", "Potency": "inconclusive: 25.1 µM [inhibitor, single point]"},
      {"compound": "C=CCn1c(CSc2nc3ccccc3s2)nnc1SCC(=O)OCC", "Potency": "inconclusive: 28.2 µM [inhibitor, single point]"},
      {"compound": "CCn1c(=O)c2sccc2n(Cc2ccccc2)c1=O", "activity, negative = inhibition": "inactive: 23.9% [at 102 µM]"},
      {"compound": "Cc1ccc2c(c1)Sc1c(ccc3ccccc13)N2", "Potency": "inconclusive: 0.141 µM [inhibitor, full curve, poor fit]"},
      {"compound": "O=C(O)c1cccc(Cn2cc(Cl)cn2)c1", "activity, negative = inhibition": "inactive: -21.3%"},
      {"compound": "CN1CCOc2ccc(S(=O)(=O)N3CCN(S(=O)(=O)c4c(F)cccc4F)CC3)cc21", "activity, negative = inhibition": "inactive: 7.79% [at 12.7 µM]"},
      {"compound": "CCC/C=N/NC(=O)c1[nH]c2c([N+](=O)[O-])cccc2c1C", "activity, negative = inhibition": "inactive: -1.12% [at 102 µM]"},
      {"compound": "CCN(CC)c1ccc2cc(-c3nnc(-c4ccncc4)o3)c(=O)oc2c1", "activity, negative = inhibition": "inconclusive: -57.3% [inhibitor]"},
      {"compound": "CCN(CC)CCNC(=O)C1CCN(S(=O)(=O)c2c(C)noc2/C=C/c2ccccc2F)CC1", "Potency": "inactive"},
      {"compound": "Cn1c2ccccc2c(=O)c2ccc(C#Cc3ccc(N)cc3)cc21", "Potency": "active: 50.1 µM"},
      {"compound": "Cc1nnc(N2C(=O)C(O)=C(C(=O)c3ccco3)C2c2ccc(F)cc2)s1", "note": "(configuration not stated)", "Potency": "inconclusive: 31.6 µM [inhibitor, single point]"},
      {"compound": "Cc1sc(NC(=O)C2C3CCC(C3)C2C(=O)O)c(C(N)=O)c1-c1ccc(C(C)(C)C)cc1", "note": "(configuration not stated)", "Potency": "inconclusive: 39.8 µM [inhibitor, single point]"},
      {"compound": "CCOC(=O)c1cc(-c2ccc(F)cc2)n(CC(=O)NC2CCCCC2)c1C", "activity, negative = inhibition": "inactive: -0.239%"},
      {"compound": "COc1ccc(-c2c(C)nn3c(C(F)(F)F)cc(-c4ccc(Br)cc4)nc23)cc1", "Potency": "inconclusive: 1.41 µM [inhibitor, partial curve, poor fit]"},
      {"compound": "Cc1ccc2[nH]c(O)c(N=NC(=O)c3ccc(NS(=O)(=O)c4cccs4)cc3)c2c1", "activity, negative = inhibition": "inactive: 5.59% [at 12.7 µM]"},
      {"compound": "Cc1ccccc1CN1CCc2nc(Nc3ccc4c(c3)OCCO4)ncc2C1", "Potency": "inconclusive: 20 µM [inhibitor, partial curve, poor fit]"},
      {"compound": "CCN(C(=O)COc1cc(=O)n(C)c2ccccc12)c1cccc(C(F)(F)F)c1", "Potency": "inconclusive: 25.1 µM [inhibitor, partial curve, poor fit]"},
      {"compound": "O=C(CCN1C(=O)C2CC=CCC2C1=O)Nc1cccc(Cl)c1", "note": "(configuration not stated)", "Potency": "inconclusive: 89.1 µM [inhibitor, single point]"},
      {"compound": "CCOc1ccc(OCC)c(C2C(C#N)=C(N)N(c3cccnc3)C3=C2C(=O)CC(C)(C)C3)c1", "note": "(configuration not stated)", "Potency": "active: 50.1 µM"}
    ]}
  ]
}
